The record followed here is PubChem BioAssay AID1745853 (National Center for Advancing Translational Sciences (NCATS), 2022).

What all share (assay): Primary Screen for Target Class Profiling of Small Molecule Inhibitors of Methyltransferases
In test [1] the target is Glycine N-methyltransferase (Homo sapiens) (UniProt Q14749). The settings on record: purified enzyme, MTase-Glo SAH luminescence; measured here: GNMT inhibition; at 40 µM; stronger effect = lower value. Put shortly:
(§1)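 Each enzyme was assayed with SAM and its substrate. SAH formation detected by MTase-Glo luminescence; single-point 40 uM screen[…].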

Test [2] addresses Guanidinoacetate N-methyltransferase (Homo sapiens) (UniProt Q14353). The settings on record: purified enzyme, MTase-Glo SAH luminescence; measured here: GAMT inhibition; at 40 µM; stronger effect = lower value. Put shortly:
as §1

In test [3] the target is Histamine N-methyltransferase (Homo sapiens) (UniProt P50135). The settings on record: purified enzyme, MTase-Glo SAH luminescence; measured here: HNMT inhibition; at 40 µM; stronger effect = lower value. In a few lines: as §1
The target of test [4] is Nicotinamide N-methyltransferase (Homo sapiens) (UniProt P40261). The settings on record: purified enzyme, MTase-Glo SAH luminescence; measured here: NNMT inhibition; at 40 µM; stronger effect = lower value. Put shortly:
as §1

The target in test [5] is Phenylethanolamine N-methyltransferase (Homo sapiens) (UniProt P11086). The settings on record: purified enzyme, MTase-Glo SAH luminescence; measured here: PNMT inhibition; at 40 µM; stronger effect = lower value. In a few lines:
as §1

The other results are listed elsewhere or left out. The main result of the screen is listed elsewhere. These columns were measured beside it and carry no call.
On the % scale 0 is the no-effect control and ±100 the full control effect.

On to `CC[C@@H]1[C@H]2CCCCN3C(=O)C[C@H]([C@@H]4[C@H]1OC(=O)[C@H]4C)[C@@H]23`, for which the activity change, negative = inhibition in test [1] is 2.78%; in test [2], 3.92%; in test [3], 3.89%; in test [4], -6.8%; in test [5] it was 1.62%.

For `CC1(C(=O)NC2CCCCC2)Cn2c(cc3sccc32)C(=O)N1Cc1ccccc1` (stereo not drawn), the activity change, negative = inhibition in test [1] was -2.9%; in test [2], 1.28%; in test [3], 0.384%; in test [4], 1.01%; in test [5], -0.871%.

On to `C/C=C/[C@@H]1C=C[C@@H]2C[C@H](C)CC[C@H]2[C@]1(C)/C(O)=C1/C(=O)[C@@H](CO)N(C)C1=O`, for which the activity change, negative = inhibition is 3.52% in test [1]; 19.8% in test [2]; 6.4% in test [3]; 4.74% in test [4]; 8.99% in test [5].

`Cc1ccc(Cn2c(=O)c3ccc(C(=O)NCC(C)C)cc3n3c(=O)[nH]nc23)cc1`: the activity change, negative = inhibition was -9.16% in test [1]; 0.114% in test [2]; 2.02% in test [3]; -19.8% in test [4]; -5.95% in test [5].

In the case of `COc1ccccc1CCNC(=O)CCn1ccc2cc(S(=O)(=O)N3CCCCC3)ccc21`, the activity change, negative = inhibition is -1.84% in test [1]; -2.67% in test [2]; 2.39% in test [3]; -10.7% in test [4]; -7.66% in test [5].

Consider `Cc1ccccc1OCC(=O)Nc1cccn2nc(-c3cccnc3)nc12`, for which the activity change, negative = inhibition in test [1] is -1.05%; in test [2], 0.208%; in test [3], 2.67%; in test [4], -5.18%; in test [5], -1.24%.

On to `Cc1cc2c(cc3n2CC(C)(C(=O)NC2CCCCCC2)N(CCc2ccccc2)C3=O)o1` (stereo not drawn), for which the activity change, negative = inhibition in test [1] is 5.6%; in test [2] it was -26.7%; in test [3] it was 8.85%; in test [4], 3.72%; in test [5], 4%.

As to `Clc1ncoc1-c1c[nH]c2ccccc12`, the activity change, negative = inhibition was -2.06% in test [1]; -5.74% in test [2]; 2.02% in test [3]; -19.5% in test [4]; -15.4% in test [5].

Regarding `CC(C)(O[C@@H]1O[C@H](CO)[C@@H](O)[C@H](O)[C@H]1O)C(OC(=O)/C=C\c1ccc(O)cc1)C(=O)OCc1ccc(O[C@@H]2O[C@H](CO)[C@@H](O)[C@H](O)[C@H]2O)cc1` (stereo partly drawn), the activity change, negative = inhibition in test [1] is 3.64%; in test [2], 1%; in test [3], -1.87%; in test [4] it was -9.03%; in test [5], 0.369%.

Turning to `CCC(C)NC(=O)c1ccc2c(=O)n(C)c3nn(Cc4ccccc4C)c(=O)n3c2c1` (stereo not drawn), the activity change, negative = inhibition worked out at 1.32% in test [1]; 3.7% in test [2]; 5.57% in test [3]; 1.08% in test [4]; 3.62% in test [5].

Regarding `C[C@@H](O)[C@H]1C(=O)N2C(C(=O)O)=C(S[C@@H]3CN[C@H](C(=O)N(C)C)C3)[C@H](C)[C@H]12`, the results for the activity change, negative = inhibition in test [2], in test [4] and in test [5] were 2.99%, -9.49% and -0.512%, respectively.

Regarding `CC(O)CO[C@@H]1O[C@H](CO)[C@@H](O)[C@H](O)[C@H]1O` (stereo partly drawn), the activity change, negative = inhibition is 0% in test [1]; 8.25% in test [2]; -8.21% in test [3]; -5.45% in test [4]; 5.87% in test [5].

`Cc1nc(N2CCC(NC(=O)C3CCCCC3)CC2)cc(C(F)(F)F)n1`: the activity change, negative = inhibition in test [1] is -2.82%; in test [2], -6.57%; in test [3], -1.4%; in test [4], -0.23%; in test [5], -23.4%.

As to `Cc1ccc(N2C(=O)c3cc4oc(C)cc4n3CC2(C)C(=O)NC2CCCCCC2)c(C)c1` (stereo not drawn), the activity change, negative = inhibition in test [1] was 0.322%; in test [2], 5.08%; in test [3], 4.86%; in test [4], 9.87%; in test [5], -1.42%.

On to `CC(C)Cc1cnc(C2CCCN(C(=O)OC(C)(C)C)C2)[nH]1` (stereo not drawn), for which the activity change, negative = inhibition in test [1] was -1.47%; in test [2], 0.933%; in test [3] it was -1.87%; in test [4], -5.25%; in test [5] it was -4.99%.

Consider `Cc1cccc(C(=O)N2CCCC(c3noc(-c4cc5c(=O)[nH]c(C)cn5n4)n3)C2)c1` (stereo not drawn), for which the activity change, negative = inhibition is -7.58% in test [1]; -7.8% in test [2]; -4.57% in test [3]; -19.5% in test [4]; -2.22% in test [5].

Take `O=C1NC(=NC2CCCC2)C2(CCN(Cc3cccnc3)C2)N1c1cc(F)cc(F)c1` (stereo not drawn): the activity change, negative = inhibition in test [1] was -7.67%; in test [2] it was -11%; in test [3], -5.84%; in test [4] it was -21.4%; in test [5], -14%.

For `CCC(C)(C)C(=O)N1CCC2(CC1)N(C)C(=O)CS2(=O)=O`, the activity change, negative = inhibition is -2.04% in test [1]; 1.61% in test [2]; 2.27% in test [3]; -5.98% in test [4]; -3.64% in test [5].

Take `C[S+](=O)([O-])CCn1ncc2cc(OCc3cccc(-c4cccc(F)c4)c3)ccc21`: the activity change, negative = inhibition in test [1] is -5.32%; in test [2] it was -3.23%; in test [3] it was 0.406%; in test [4] it was -9.34%; in test [5], 6.33%.

In the case of `Cc1ccc(Cn2c(=O)c3ccccc3n3c(=O)n(Cc4cccc(F)c4)nc23)cc1`, the activity change, negative = inhibition was 2.22% in test [1]; 3.81% in test [2]; 8.11% in test [3]; -2.82% in test [4]; 2.92% in test [5].

As for `COC(=O)N1CCCCC12Cc1ccccc1NC2=O` (stereo not drawn), the activity change, negative = inhibition in test [1] is -5.5%; in test [2], -7.29%; in test [3] it was -1.9%; in test [4] it was -14.2%; in test [5], -5.65%.

As for `CCN1CC(c2ccccc2)CC2(CCN(C(=O)c3ccon3)CC2)C1` (stereo not drawn), the activity change, negative = inhibition in test [1] is -1.3%; in test [2], 3.52%; in test [3], -5.76%; in test [4], 0.528%; in test [5], 11.8%.

For `Cc1cc(C(=O)N2CCCC(C(=O)Nc3cccc(-c4cc5ccccc5[nH]4)c3)C2)nn1C` (stereo not drawn), the activity change, negative = inhibition in test [1] is -7.48%; in test [2], -4.3%; in test [3] it was -4.84%; in test [4], -14.7%; in test [5] it was -16.3%.

Regarding `CCCn1c(=O)c2ccc(C(=O)NC(C)CC)cc2n2c(=O)n(CC(=O)Nc3ccc(Cl)cc3)nc12` (stereo not drawn), the activity change, negative = inhibition was 0.856% in test [1]; 8.25% in test [2]; 5.04% in test [3]; -0.948% in test [4]; 1.97% in test [5].

As to `Cn1ncc2c(C(=O)N3CCC(C#N)CC3)cc(-c3cc(Cl)cc(Cl)c3)nc21`, the activity change, negative = inhibition was -7.17% in test [1]; -5.19% in test [2]; -7.2% in test [3]; -12.8% in test [4]; 8.83% in test [5].

On to `CCOC(=O)c1cc2n(n1)CC(C)(C(=O)NC1CCC(C)CC1)N(c1ccc(C)c(F)c1)C2=O` (stereo not drawn), for which the activity change, negative = inhibition in test [1] was -5.48%; in test [2], 2.38%; in test [3], -3.42%; in test [4], -4.27%; in test [5] it was -8.96%.

Consider `CC1(C(=O)NC2CCCC2)Cn2c(ccc2-c2ccco2)C(=O)N1Cc1cccnc1` (stereo not drawn), for which the activity change, negative = inhibition in test [1] stood at 3.05%; in test [2] it was 1.29%; in test [3] it was 8.7%; in test [4], 9.31%; in test [5], 2.16%.

With `O=C(C1CCCN(C2CCN(c3ncccn3)CC2)C1)N1CCOCC1` (stereo not drawn), the activity change, negative = inhibition in test [1] was -0.176%; in test [2], 0.074%; in test [3], -0.626%; in test [4], 2.88%; in test [5], 16.1%.

In the case of `CNC(=O)CC1CCOC2(CCN(S(=O)(=O)c3cc(OC)ccc3OC)CC2)C1` (stereo not drawn), the activity change, negative = inhibition in test [1] turned out to be 5.69%; in test [2], 1.53%; in test [3] it was 16.4%; in test [4], 6.55%; in test [5] it was 11.3%.

`CCOCCCN1C(=O)c2cc(-c3ccccc3)nn2CC1(C)C(=O)NCc1ccccc1` (stereo not drawn): the activity change, negative = inhibition is 0.981% in test [1]; 1.41% in test [2]; 1.27% in test [3]; -2.35% in test [4]; -1.74% in test [5].
